Laboratory results published in the supplement of paper PMC9174493.
Some of the results follow. Single values of this set are uncertain. Values with irradiation are relative to irradiated vehicle.

How the values were obtained:
A549-Dual [1] = experiment: NF-kB reporter (SEAP) activity, viability-corrected, relative to vehicle (fold change vs vehicle); higher = more activation of STING-IRF / NF-kB immune response reporter; details: 10 µM
A549-Dual [2] = experiment: ISRE reporter (Lucia luciferase) activity, viability-corrected, relative to vehicle (fold change vs vehicle); higher = more activation of STING-IRF / NF-kB immune response reporter; details: 10 µM
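Throughout, for NF-kB reporter (SEAP) activity, viability-corrected, relative to vehicle: viability correction based on the alamar blue assay, with concentrations leaving 10% survival or less dropped.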

| SMILES | NF-kB reporter (A549-Dual [1]; irradiation: 8 Gy/4 fr) | NF-kB reporter (A549-Dual [1]; irradiation: none) | ISRE reporter (A549-Dual [2]; irradiation: 8 Gy/4 fr) | ISRE reporter (A549-Dual [2]; irradiation: none) |
| --- | --- | --- | --- | --- |
| Cl.NCCCC(N)(C(=O)O)C(F)F.O (centres undefined) [Eflornithine hydrochloride hydrate] | 1.07 | 0.872 | 1.06 | 0.691 |
| CN(C/C=C/C#CC(C)(C)C)Cc1cccc2ccccc12 [Terbinafine] | 1.2 | 0.995 | 1.39 | 1.02 |
| O=C([O-])C(O)C(O)C(O)C(O)CO.[Na+] (centres undefined) [Sodium Gluconate] | 0.791 | 0.882 | 0.748 | 0.793 |
| OCCN(CCO)c1nc(N2CCCCC2)c2nc(N(CCO)CCO)nc(N3CCCCC3)c2n1 [Dipyridamole] | 0.807 | 0.839 | 0.933 | 1 |
| Cc1cccc(C)c1OCC(=O)NC(Cc1ccccc1)C(O)CC(Cc1ccccc1)NC(=O)C(C(C)C)N1CCCNC1=O (centres undefined) [Lopinavir] | 0.617 | 0.68 | 0.598 | 0.869 |
| NC(=O)N/N=C/c1ccc([N+](=O)[O-])o1 [Nitrofural] | 0.538 | 0.848 | 0.51 | 0.728 |
| CCCNC1CCc2nc(N)sc2C1 (centres undefined) [Pramipexole] | 0.803 | 1.14 | 0.621 | 0.706 |
| CC1Cc2ccccc2N1NC(=O)c1ccc(Cl)c(S(N)(=O)=O)c1 (centres undefined) [Indapamide] | 0.988 | 0.884 | 0.853 | 0.606 |
| CCc1c2c(nc3ccc(OC(=O)N4CCC(N5CCCCC5)CC4)cc13)-c1cc3c(c(=O)n1C2)COC(=O)C3(O)CC.Cl.O.O.O (centres undefined) [Irinotecan HCl Trihydrate] | 0.915 | 1.85 | 1.71 | 8.62 |
| CC1CCOC2Cn3cc(C(=O)NCc4ccc(F)cc4F)c(=O)c(O)c3C(=O)N12 (centres undefined) | 0.588 | 0.839 | 0.465 | 0.64 |
| CC(C[N+](C)(C)C)OC(N)=O.[Cl-] (centres undefined) [Bethanechol chloride] | 0.907 | 0.928 | 0.969 | 0.766 |
